Several values for one entry are separate records, joined by “and”; a condition that tells them apart may be missing. Identical values can stand only once. The whole screen tested about 210,000 compounds, of which about 730 (0.35%) were called active. Inconclusive results, whose numbers are uncertain, are shown with a selection of clear calls. The call rests on the fitted dose curve; in most records, active means well fitted inhibition curve with a large enough effect; inconclusive means small, poorly fitted or top-dose-only effect; inactive means no such curve, though single readings can be large or run the other way. Potencies of inconclusive entries are doubtful fits and often do not repeat.
Experiment: qHTS Assay for Identifying the Cell-Membrane Permeable IMPase Inhibitors: Potentiation with Lithium; further: nearly all actives have a fitted effect of over 50% in size;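 on activity, negative = IMPase inhibition: plate controls were basal vehicle for no effect and high inhibitor control for full effect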
Settings: CHO-M1 cells, IP1 TR-FRET (IP-One), carbachol + lithium; series mostly up to 59.4 µM; activity, negative = IMPase inhibition: at the top concentration
Method in brief: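 CHO cells stably expressing M1 receptor (2000/well, cultured 16–30 h) treated 30 min at 37C with compound plus low lithium. Cytosolic IP1 by TR-FRET (665/620 ratio and 620 channel) after 10 min lysis; AC50 by Hill fit.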
Potency means the concentration at half of the fitted maximal effect.

| SMILES | Potency | activity, negative = IMPase inhibition |
| --- | --- | --- |
| Cc1cc(C)cc(-n2c(C)cc(C=C(C#N)C#N)c2C)c1 | active: 10 µM | – |
| Cc1ccc(CNC(=O)CSc2c3c(nc4ccc(Cl)cc24)CCCC3)o1 | inconclusive: 28.2 µM [inhibitor, single point] | – |
| Cc1nc(-c2ccccn2)sc1C(=O)O | inconclusive: 14.1 µM [inhibitor, single point] | – |
| CCCCNC(=O)C(=O)c1ccccc1NC(C)=O | inconclusive: 28.2 µM [inhibitor, single point] | – |
| CCOc1ccc(CN2CCN(Cc3nc4c(s3)CCCC4)CC2CCO)cc1 (stereo not drawn) | – | inactive: 5.56% |
| Nc1c(C(=O)Nc2ccc(F)cc2)sc2nc(-c3ccco3)ccc12 | inconclusive: 11.2 µM [inhibitor, partial curve] | – |
| CCCCCNC(=O)c1ccc2c(=O)n(CCCOCC)c(=S)[nH]c2c1 | inconclusive: 11.2 µM [inhibitor, single point] | – |
| O=C(O)c1ccc(CNc2ccccc2C(=O)O)cc1 | active: 10 µM | – |
| O=C(CCc1ccc(S(=O)(=O)N2CCOCC2)cc1)OCc1nc2ccccc2s1 | – | inactive: 12.1% [at 38.3 µM] |
| CCCC1Cc2c(sc(N)c2C#N)CO1 (stereo not drawn) | inconclusive: 22.4 µM [inhibitor, single point] | – |
| COCc1cc(C)nc(Nc2ccc(C)cc2C)c1C#N | inconclusive: 28.2 µM [inhibitor, single point] | – |
| N#Cc1c(-c2ccccc2)nc(-c2ccccc2)[nH]c1=O | active: 3.55 µM | – |
| CCc1ccc(OCC(=O)N(C)CCC#N)c(Br)c1 | – | inactive: 26.3% [at 38.3 µM] |
| FC(F)(F)c1cnc(NNC(=S)Nc2ccc(Cl)cc2)c(Cl)c1 | – | inactive: 6.62% |
| CCOC(=O)c1ccc(NC(=O)CSc2ccc(-c3ccncc3)nn2)cc1 | inconclusive: 28.2 µM [inhibitor, single point] | – |
| COc1ccc(-c2nn(CCC#N)cc2/C=N/O)cc1OC | inconclusive: 2.24 µM [inhibitor, single point] | – |
| COc1ccc(-c2nnc3sc(CN4C(=O)c5ccccc5C4=O)nn23)cc1 | inconclusive: 22.4 µM [inhibitor, single point] | – |
| COC(=O)[C@H](C)NC(=O)NCc1ccccc1F | – | inactive: -6.32% [at 38.3 µM] |
| O=C(CSc1ncnc2c1nnn2Cc1ccc(F)cc1)NC1CCCC1 | inconclusive: 14.1 µM [inhibitor, single point] | – |
| O=C(Cn1c(=O)c(=O)n(Cc2ccccc2)c2ccc(Cl)cc21)Nc1cccc(F)c1 | inconclusive: 28.2 µM [inhibitor, single point] | – |
| O=C(/C=C/c1ccc(Br)o1)Nc1nccs1 | – | inactive: 2.66% |
| O=C1OC(c2ccccc2)/C(=C(/O)c2ccc(Cl)cc2)C1=O (stereo not drawn) | inconclusive: 2.51 µM [inhibitor, partial curve] | – |
| CCOCCCNC(=S)NCCNc1nc2c(C)cccc2cc1C#N | inconclusive: 28.2 µM [inhibitor, single point] | – |
| Cn1c(N)c(C(=O)COC(=O)c2ccnc3ccccc23)c(=O)n(C)c1=O | inconclusive: 22.4 µM [inhibitor, single point] and inconclusive: 28.2 µM [inhibitor, single point] | – |

| SMILES | Potency | activity, negative = IMPase inhibition |
| --- | --- | --- |
| O=C(Nc1ccc(C(=O)NC2CCCCC2)cc1)c1cncc(Br)c1 | inconclusive: 28.2 µM [inhibitor, single point] | – |
| COc1ccccc1CNC(=O)C(C)Sc1ccc(C)cc1 (stereo not drawn) | – | inactive: 13.8% |
| CCC(=O)c1ccc(CCCCCC(=O)O)s1 | inconclusive: 8.91 µM [inhibitor, single point] | – |
| COc1ccccc1NC(=S)NC(=O)CCCOc1ccc(Cl)cc1Cl | – | inactive: 2.76% [at 38.3 µM] |
| COC(=O)N[C@@H](c1cccc(C)c1)C(C(C)=O)C(=O)OC (stereo partly drawn) | – | inactive: 13.4% |
| CC(CCc1ccccc1)NC(=O)COC(=O)c1ccccc1O (stereo not drawn) | inconclusive: 28.2 µM [inhibitor, single point] | – |
| CC(=O)Nc1ccc(NC(=O)CCn2c(=S)oc3ccccc32)cc1 | inconclusive: 10 µM [inhibitor, partial curve] | – |
| N#Cc1ccc(CSc2nnc(NC(=O)c3ccc4ncsc4c3)s2)cc1 | active: 7.94 µM | – |
| Fc1ccc(-n2c(-c3cccs3)nc3nc4ccccc4nc32)cc1 | inconclusive: 11.2 µM [inhibitor, single point] | – |
| N#Cc1cc2c(nc1SCC(=O)Nc1sc3c(c1C#N)CCC3)CCCC2 | inconclusive: 28.2 µM [inhibitor, single point] | – |
| CCCCc1cc(=O)oc2c(CN(C)C)c(O)c(Cl)cc12 | inconclusive: 14.1 µM [inhibitor, single point] | – |
| COc1ccc(-c2nnc(NC(=O)C(C)C)s2)c(OC)c1 | active: 12.6 µM | – |
| C/C(=C\C1CCCCC1)C(NC(=O)c1ccc(C(F)(F)F)cc1)c1ccc(-c2ccccc2)cc1 (stereo not drawn) | – | inactive: -7.66% |
| COc1ccc2nc(NC(=O)CSc3nc4ccccc4o3)sc2c1 | inconclusive: 28.2 µM [inhibitor, single point] | – |
| Cc1cc(C)nc(N2CCN(c3nc(C)cc(C)n3)CC2)n1 | inconclusive: 14.1 µM [inhibitor, partial curve, poor fit] | – |
| CCOc1ccc(-c2csc(N)c2C(=O)OC)cc1 | – | inactive: 21.2% [at 38.3 µM] |
| Cc1ccc(/C=N/N(Cc2ccccc2)c2ccccc2)o1 | – | inactive: 15.8% |
| COc1ccc(-c2noc(-c3ccc4c(c3)OCO4)n2)cc1 | inconclusive: 28.2 µM [inhibitor, single point] | – |
| NC(=O)c1oc2ccc(Cl)cc2c1NC(=O)CN1CCOCC1 | – | inactive: 21.5% [at 38.3 µM] |
| Cc1cccc(C)c1NC(=O)CSc1nc(C)c(CC(=O)c2ccc(Br)cc2)c(C)c1C#N | inconclusive: 28.2 µM [inhibitor, single point] | – |
| CSC1=NCCN1C(=O)c1ccc(C)cc1 | – | inactive: -0.519% |
| O=C(CN1CCN(Cc2ccccc2)CC1)N=Nc1c(O)[nH]c2ccccc12 | – | inactive: 4.49% |
| C=CCn1c(NS(=O)(=O)c2ccccc2)c(S(=O)(=O)c2ccc(C)cc2)c2nc3ccccc3nc21 | inconclusive: 2.82 µM [inhibitor, single point] | – |
| Cc1nn(Cc2ccc(F)cc2)c2sc(C(=O)Nc3nccs3)cc12 | inconclusive: 22.4 µM [inhibitor, single point] | – |

From PubChem BioAssay AID1457 (National Center for Advancing Translational Sciences (NCATS), 2008)
